# The campaign covered roughly 310,000 compounds. About 14,000 (4.5%) showed an effect of 50% or more. Effects have a minus sign here. The list shows a part of the results.
# Target: human ether-à-go-go-related gene (hERG) potassium channel (human, UniProt Q12809)
# Assay: primary screen, population patch clamp on CHO cells stably expressing hERG
# 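Note: peak tail current of the secondary pulse compared with the same well before compound.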
# human ether-à-go-go-related gene (hERG) potassium channel, sequence (Q12809 whole entry, looked up): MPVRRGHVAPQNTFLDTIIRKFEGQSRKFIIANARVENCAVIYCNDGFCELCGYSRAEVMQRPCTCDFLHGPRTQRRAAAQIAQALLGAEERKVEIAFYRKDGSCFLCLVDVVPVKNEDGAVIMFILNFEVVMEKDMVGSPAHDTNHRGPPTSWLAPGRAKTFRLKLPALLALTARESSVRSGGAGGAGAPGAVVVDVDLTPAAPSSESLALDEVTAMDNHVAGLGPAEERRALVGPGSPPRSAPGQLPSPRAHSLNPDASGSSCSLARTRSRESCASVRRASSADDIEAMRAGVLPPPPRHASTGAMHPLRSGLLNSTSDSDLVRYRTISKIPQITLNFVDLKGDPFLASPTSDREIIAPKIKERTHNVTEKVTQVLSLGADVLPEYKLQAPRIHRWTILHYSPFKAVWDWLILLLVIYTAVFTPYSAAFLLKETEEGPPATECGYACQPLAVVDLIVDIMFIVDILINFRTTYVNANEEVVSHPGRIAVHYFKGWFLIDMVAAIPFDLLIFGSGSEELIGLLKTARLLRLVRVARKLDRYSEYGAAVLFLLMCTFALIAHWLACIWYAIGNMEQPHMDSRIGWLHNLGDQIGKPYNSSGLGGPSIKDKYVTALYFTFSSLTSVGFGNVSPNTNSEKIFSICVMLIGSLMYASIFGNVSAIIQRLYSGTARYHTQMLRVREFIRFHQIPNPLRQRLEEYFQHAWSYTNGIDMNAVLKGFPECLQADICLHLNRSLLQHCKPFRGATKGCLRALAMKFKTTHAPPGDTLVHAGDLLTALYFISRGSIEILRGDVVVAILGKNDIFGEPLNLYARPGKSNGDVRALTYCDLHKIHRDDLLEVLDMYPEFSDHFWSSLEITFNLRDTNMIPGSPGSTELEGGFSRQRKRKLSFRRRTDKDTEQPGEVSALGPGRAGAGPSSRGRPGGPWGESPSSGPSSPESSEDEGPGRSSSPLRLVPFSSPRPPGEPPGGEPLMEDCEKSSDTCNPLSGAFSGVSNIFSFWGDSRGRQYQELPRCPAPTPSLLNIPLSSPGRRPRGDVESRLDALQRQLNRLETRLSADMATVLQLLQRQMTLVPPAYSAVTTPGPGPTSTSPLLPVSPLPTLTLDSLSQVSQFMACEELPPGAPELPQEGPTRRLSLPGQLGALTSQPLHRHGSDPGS
row,Compound,"hERG current change (%, negative = inhibition) at 10uM"
1,CN(CC(=O)Nc1ccccc1Br)C(=O)c1ccncc1,24.3%
2,CC(C)[C@H](N)C(=O)OCCOCn1cnc2c(=O)[nH]c(N)nc21,16.6%
3,Cc1nn(Cc2ccc(Cl)c(Cl)c2)c(C)c1NC(=O)c1cc(CC(C)C)on1,-6.99%
4,COc1ccc(Oc2cn[nH]c2-c2ccc(OCC(=O)NN)cc2O)cc1,6.68%
5,COC(=O)C1=CN(Cc2cccs2)C=C(C(=O)OC)C1c1cccc(O)c1,-30.9%
6,CCCN1C(=O)/C(=C2\SC(N3CCCCC3)=NC2=O)c2ccccc21,0.422%
7,C=CCN1C(=O)NC(=O)C(Cc2ccc(OC)c(OC)c2)C1=O (stereo not shown),18%
8,CCSc1nnc(NC(=O)c2cc(C)oc2C)s1,17.7%
9,Cc1cc(F)ccc1S(=O)(=O)N1CCCOC1CNC(=O)C(=O)NCc1ccco1 (stereo not shown),2.99%
10,OCCNc1nc2ccc(Cl)cc2[nH]1,-4.36%
11,O=C(CN1C(=O)NC(Cc2ccccc2)C1=O)Nc1ccc(F)cc1 (stereo not shown),-7.41%
12,O=C(CCSc1nc(-c2ccco2)cc(C(F)(F)F)n1)NCC1CCCO1 (stereo not shown),-8.69%
13,COc1ccc(CCNC(=O)CO/N=C/c2cc3c(cc2Br)OCO3)cc1OC,-4%
14,COc1ccc(C(C)=O)cc1COC(=O)Cc1cc(OC)c(OC)c(OC)c1,-9.26%
15,Nc1nn(S(=O)(=O)c2ccccc2)cc1-c1ccc([N+](=O)[O-])cc1,-9.96%
16,Cc1cccc(-n2c(O)c(C=NCc3cccnc3)c(=O)[nH]c2=O)c1C,11.4%
17,COc1ccc(C(C)=O)cc1CC(C(=O)c1ccc(F)cc1)N(C)C (stereo not shown),-6.6%
18,O=C(CSc1ncn(-c2ccccc2)n1)c1cccs1,-3.5%
19,CC1CCCCC1NC(=O)COC(=O)c1ccc2ccccc2n1 (stereo not shown),3.44%
20,COc1ccc(CNC(=O)c2nccnc2CO)cc1,12.1%
21,COc1ccc(CNC(=O)N2CCc3ccccc3C2)cc1,-2.51%
22,CC(=O)NCCc1nc2cc(NC(=O)c3ccc(F)cc3)ccc2n1C,9.6%

row,Compound,"hERG current change (%, negative = inhibition) at 10uM"
1,COc1ccc(-n2nc(C(=O)NCC3CCCO3)c3ccccc3c2=O)cc1 (stereo not shown),31.7%
2,N#Cc1nc(-c2ccco2)oc1N1CCOCC1,4.48%
3,Cc1ccc(C)c(C(=O)CSc2nc(N)cc(=O)[nH]2)c1,-23.2%
4,CC1(C)Cc2[nH]c(=S)c(C#N)cc2CO1,17.8%
5,Cc1n[nH]c(=O)nc1Nc1ccc(O)cc1,1.47%
6,O=C(COC(=O)c1cc([N+](=O)[O-])ccc1NCCO)c1ccc(Cl)cc1,8.76%
7,Cc1c(NC(=O)c2cc(-c3cccc(Cl)c3)on2)c(=O)n(-c2ccccc2)n1C,-36.4%
8,CCn1c(CNC(=O)c2cccc(C)c2)nnc1SCC(=O)NC1=NCCS1,22%
9,O=C(NCc1c[nH]c2ccccc12)c1ccccc1,1.64%
10,COc1ccc(OC)c2sc(N3CCc4ccccc4C3)nc12,16.4%
11,Cc1ccc(C(=O)NCCCN2CCOCC2)c(C)c1,26.1%
12,CCOC(=O)CSc1nnc(CCCCCN2C(=O)c3cccc4cccc(c34)C2=O)o1,-4.55%
13,CC(CC(C)C(=O)N1CCOCCN(C(=O)C(C)CC(C)C(=O)O)CCOCC1)C(=O)O (stereo not shown),13.7%
14,CC(C)OP(=O)(OC(C)C)C(Nc1ccccc1)c1ccccc1C(F)(F)F (stereo not shown),-5.45%
15,Cc1cc(F)ccc1N1CCC(N2CCN(C)C(CCO)C2)CC1 (stereo not shown),22.1%
16,CCN(C(=O)CN1C(=O)/C(=C/c2ccc(F)cc2)SC1=S)C1CCS(=O)(=O)C1 (stereo not shown),-16.2%
17,COc1ccc(OC)c(C2C3=C(N=c4s/c(=C\c5cccc(O)c5)c(=O)n42)c2ccccc2CC3)c1 (stereo not shown),-0.325%
18,CCOC(=O)c1nnn(-c2nonc2N)c1CN1CCCC1,11.4%
19,O=C(c1cccc(N2C(=O)C3C4C=CC(C4)C3C2=O)c1)N1CCN(c2ccccc2)CC1 (stereo not shown),-1.68%
20,CC12CCC(C(=O)NCc3ccc4c(c3)OCO4)(OC1=O)C2(C)C (stereo not shown),6.22%
21,O=C(NNc1c2ccccc2nc2ccccc12)c1cc2ccccc2cc1O,17.2%
22,CCC(NC(=O)c1cc(COc2ccc(OC)cc2Cl)on1)c1ccncc1 (stereo not shown),-21%

row,Compound,"hERG current change (%, negative = inhibition) at 10uM"
1,Cc1ccccc1Nc1nc(=O)c2cc([N+](=O)[O-])ccc2s1,-6.28%
2,O=c1[nH]nc(SCc2ccccc2Cl)n1-c1ccc2c(c1)OCCO2,-0.696%
3,CCOc1ccccc1NC(=O)C(=O)CC(=O)c1cccc(OC)c1,15.3%
4,CS(=O)(=O)c1ccccc1C(=O)NC1CCCc2ccccc21 (stereo not shown),66.1%
5,CCN(C(=O)CSc1ccc2c(c1)OCCO2)C1CCS(=O)(=O)C1 (stereo not shown),9.65%
6,Cc1nc2ccc(NC(=O)c3ccc(Cl)s3)cc2s1,10.6%
7,Cc1cc(/C=C2\C(=O)NC(=O)N(c3ccc(F)cc3)C2=O)c(C)n1-c1cccc(C(=O)O)c1,10.6%
8,Cc1nc(NC(=O)COC(=O)C(NC(=O)c2ccco2)C(C)C)c(Cl)cc1Cl (stereo not shown),-8.14%
9,Cc1cc(NS(=O)(=O)c2ccc(NC(=O)CSc3nnc(-c4ccco4)n3Cc3ccco3)cc2)nc(C)n1,15.2%
10,Cc1n[nH]c(C)c1CCC(=O)N/N=C/c1c(C)[nH]c2ccccc12,16.4%
11,COC(=O)C1=C(c2ccc(S(C)(=O)=O)cc2)C[C@@H]2CC[C@H]1N2C(=O)NCc1ccc(C(F)(F)F)cc1,-59.3%
12,COc1ccc(O)c(-c2cn[nH]c2-c2cccs2)c1,7.6%
13,CCOC(=O)c1nn(-c2ccccc2)c(=O)cc1OCC(=O)Nc1cc(C)ccc1OC,-44%
14,COC(=O)CSc1nc(-c2ccccc2)c2c(c1C#N)CCCC2,2.26%
15,O=C(NCc1ccco1)c1ccc(F)c(S(=O)(=O)N2CCCCC2)c1,-11.3%
16,Cn1nc(OC(=O)Nc2ccc(Cl)cc2)cc1C(F)(F)F,4.9%
17,Cc1cccc(N2CCN(CCc3ccccc3)CC2)c1C,-75.1%
18,COc1ccc(N2CCN(Cc3nc4c(c(=O)n(C)c(=O)n4C)n3CCc3ccccc3)CC2)cc1,13.5%
19,CCOC(=O)c1cnc2ccc(OC)cc2c1NCc1ccccc1,-65.8%
20,CN(C(=O)COC(=O)CSc1ccc([N+](=O)[O-])cc1)c1ccccc1,-27.8%
21,Cc1ccccc1OCC(=O)N(Cc1ccco1)c1c(N)n(Cc2ccccc2)c(=O)[nH]c1=O,16.3%
22,N#Cc1c(-c2ccc(F)cc2)nc(-c2ccccc2)[nH]c1=O,18.2%

row,Compound,"hERG current change (%, negative = inhibition) at 10uM"
1,COc1cccc(C2=NOC(C(=O)NCc3ccco3)C2)c1 (stereo not shown),-5.82%
2,CCN(CC)S(=O)(=O)c1ccc(=O)[nH]c1,52.8%
3,CC(CCc1ccccc1)NCc1ccncc1 (stereo not shown),-8.72%
4,CCC(C(=O)Nc1nccs1)(C(F)(F)F)C(F)(F)F,3.58%
5,CC(=O)c1ccc(OCc2cc(C(=O)N(C)Cc3cc(C)no3)no2)cc1,-1.89%
6,CC(C)Nc1ncnc2c1cnn2-c1ccc(Cl)cc1,-3.44%
7,Cc1ccc(S(=O)(=O)NCC(c2cccnc2)N2CCOCC2)cc1 (stereo not shown),5.12%
8,CC1CCCC(C)N1C(=S)SCC(=O)O (stereo not shown),0.127%
9,O=C(O)CN1C(=O)CSc2ccccc21,-30.6%
10,CC(=O)OC[C@H]1O[C@@H](O/N=C/C[C@@H]2C=C[C@H](OC(C)=O)[C@@H](COC(C)=O)O2)[C@H](OC(C)=O)[C@@H](OC(C)=O)[C@@H]1OC(C)=O,2.63%
11,CCC1CN(C(=O)N2CCC(C(=O)NCc3ccccc3OC)CC2)c2ccccc2O1 (stereo not shown),-12.7%
12,Cc1cc(NC(=O)CSc2nnnn2-c2ccccc2C)no1,11.6%
13,O=C(c1cccc(S(=O)(=O)N2CCOCC2)c1)N1CCCCCC1,-8.68%
14,O=C(Cn1c(O)c(/C=C2\C=Nc3ccccc32)sc1=O)N1CCOCC1,20.5%
15,CCOc1ccc(CNC(=O)CS(=O)(=O)Cc2nc(-c3ccc(OC)cc3)oc2C)cc1,-0.888%
16,CC(NS(=O)(=O)c1ccccc1)C(=O)NCc1ccco1 (stereo not shown),10.3%
17,CCOc1ccc(-c2nnc(-c3snc(-c4ccc(F)cc4)c3N=CN(C)C)o2)cc1,15.4%
18,O=C1CC(=O)Nc2cc(S(=O)(=O)N3CCN(c4ccc([N+](=O)[O-])cc4)CC3)ccc2N1,-66.8%
19,COc1ccc(S(=O)(=O)Cc2ccc(C(=O)NCCCN3CCc4ccccc4C3)o2)cc1,-51.2%
20,Cc1ccc(Cl)c2sc(NC(=O)C3CC3)nc12,5.85%
21,CCn1c(/C=C/c2cccc([N+](=O)[O-])c2)nc2ccccc2c1=O,7.29%
22,COC(=O)c1ccc(C(=O)Nc2ccc3nc(-c4cccnc4)[nH]c3c2)cc1,14.9%

# — PMC4336329 (PLoS ONE, 2015)
